# Some of the results follow.
# How the values were obtained:
# [1] = system: HSkMC (human skeletal muscle cells); experiment: cytotoxicity call (relative viability < 0.9); details: 10 µM
# [2] = system: HepG2; experiment: cytotoxicity call (relative viability < 0.9); details: 10 µM
# [3] = system: S. aureus RN4220; experiment: growth inhibition call (relative growth <= 0.2); details: 50 µM
Structure (SMILES),cytotoxicity call [1],cytotoxicity call [2],growth inhibition call [3]
C[C@H](CO)N1C[C@H](C)[C@@H](CN(C)C(=O)NC2CCCCC2)Oc2c(NS(=O)(=O)c3cn(C)cn3)cccc2C1=O,inactive,inactive,inactive
C[C@@H]1CCCCO[C@H](CN(C)CC2CC2)[C@@H](C)CN([C@H](C)CO)C(=O)c2cc(NS(=O)(=O)c3ccc(Cl)cc3)ccc2O1,inactive,inactive,inactive
CNC[C@@H](O)CS(=O)(=O)c1ccccc1,inactive,inactive,inactive
CCN(CC)Cc1ccc(Nc2ccnc3cc(Cl)ccc23)cc1O.Cl.Cl,inactive,active,inactive
C[C@@H]1CCCCO[C@@H](CN(C)S(=O)(=O)c2ccccc2)[C@H](C)CN([C@@H](C)CO)C(=O)c2cc(NS(C)(=O)=O)ccc2O1,inactive,inactive,inactive
Cc1noc(C)c1S(=O)(=O)Nc1ccc2c(c1)C(=O)N([C@@H](C)CO)C[C@H](C)[C@H](CN(C)S(C)(=O)=O)OCCCC[C@@H](C)O2,inactive,inactive,inactive
OC(c1ccc(-c2ccc(CN3CCN(Cc4ccncc4)CC3)cc2)c(F)c1)(C(F)(F)F)C(F)(F)F,inactive,inactive,inactive
C[C@@H]1CN([C@@H](C)CO)C(=O)c2cc(NC(=O)Nc3cccc4ccccc34)ccc2O[C@@H](C)CCCCO[C@@H]1CN(C)Cc1ccccc1,active,active,inactive
COc1ccc(NC(=O)N(C)C[C@H]2Oc3ncc(C#C[C@H](C)O)cc3C(=O)N([C@H](C)CO)C[C@H]2C)cc1,inactive,inactive,inactive
C[C@H](CO)N1C[C@H](C)[C@@H](CN(C)C(=O)C2CCCCC2)OCCCC[C@H](C)Oc2ccc(NS(=O)(=O)c3ccc(Cl)cc3)cc2C1=O,inactive,inactive,inactive
CC1(C)OC(=O)C(OCC2CC2)=C1c1ccc(S(C)(=O)=O)cc1,inactive,inactive,inactive
COc1ccc(NC(=O)N(C)C[C@H]2OCCCC[C@@H](C)Oc3ccc(NS(=O)(=O)c4c(C)noc4C)cc3C(=O)N([C@@H](C)CO)C[C@H]2C)cc1,inactive,inactive,inactive
COc1ccc(S(=O)(=O)N2C[C@@H](O)COC[C@@H]3O[C@@H](CC(=O)NCCCN(C)C)CC[C@H]32)cc1,inactive,inactive,inactive
C[C@@H]1CN([C@H](C)CO)C(=O)c2cc(NC(=O)CCC(F)(F)F)ccc2O[C@@H](C)CCCCO[C@H]1CN(C)S(=O)(=O)c1ccccc1,inactive,inactive,inactive
C[C@@H]1CCCCO[C@H](CN(C)Cc2ccc3c(c2)OCO3)[C@@H](C)CN([C@@H](C)CO)C(=O)c2cc(NC(=O)c3ccccc3)ccc2O1,inactive,inactive,inactive
COc1ccc2c3c(n(c2c1)C)[C@H](CO)N(C[C@]13CCN(CC1)C(=O)C1CC1)C(=O)CN1CCOCC1,inactive,inactive,inactive
COc1ccc(NC(=O)Nc2ccc3c(c2)C(=O)N([C@H](C)CO)C[C@@H](C)[C@@H](CN(C)C(=O)CCC(F)(F)F)OCCCC[C@H](C)O3)cc1,inactive,inactive,inactive
C[C@@H]1CN([C@H](C)CO)C(=O)c2cc(NC(=O)CCCCCC(=O)Nc3ccccc3N)ccc2O[C@H]1CN(C)S(C)(=O)=O,inactive,inactive,inactive
C[C@@H]1CN([C@@H](C)CO)S(=O)(=O)c2ccc(C#CCN(C)C)cc2O[C@@H]1CN(C)Cc1cccnc1,inactive,inactive,inactive
O=S(=O)([O-])NC1CCCCC1.[Na+],inactive,inactive,inactive
COc1ccc(CCNC(=O)c2cc3c(=O)n4cccc(C)c4nc3n(CCCN3CCOCC3)c2=N)cc1,inactive,active,inactive
C[C@@H]1CCCCO[C@@H](CN(C)S(=O)(=O)c2ccccc2)[C@@H](C)CN([C@H](C)CO)C(=O)c2cc(NC(=O)C3CCCCC3)ccc2O1,inactive,inactive,inactive
C[C@@H]1CN([C@@H](C)CO)C(=O)c2cc(-c3cccc(C(=O)N(C)C)c3)cnc2O[C@@H]1CN(C)S(=O)(=O)c1ccc(F)cc1,inactive,inactive,inactive
O=C(CCCCCCC(=O)Nc1ccc([C@H]2O[C@@H](CSc3ccccn3)C[C@H](c3ccccc3)O2)cc1)NO,inactive,inactive,inactive
CC(C)Cn1cnc2c(N)nc3ccccc3c21.Cl,inactive,inactive,inactive
C[C@@H]1CCCCO[C@H](CN(C)CC2CC2)[C@H](C)CN([C@H](C)CO)C(=O)c2cc(NC(=O)c3ccccc3)ccc2O1,inactive,inactive,inactive
Cc1noc(C)c1NC(=O)N(C)C[C@@H]1Oc2cc(C#CCN(C)C)ccc2S(=O)(=O)N([C@H](C)CO)C[C@H]1C,inactive,inactive,inactive
COCC(=O)N(C)C[C@H]1Oc2cc(C#C[C@@H](C)O)ccc2S(=O)(=O)N([C@H](C)CO)C[C@H]1C,inactive,inactive,inactive

Structure (SMILES),cytotoxicity call [1],cytotoxicity call [2],growth inhibition call [3]
COCC(=O)Nc1ccc2c(c1)C(=O)N(C)[C@@H]1CC[C@H](CC(=O)NCc3ccccc3Cl)O[C@H]1CO2,inactive,inactive,inactive
C[C@@H]1CCCCO[C@H](CN(C)C(=O)Nc2ccc3c(c2)OCO3)[C@H](C)CN([C@H](C)CO)C(=O)c2cc(NC(=O)c3ccncc3)ccc2O1,inactive,inactive,inactive
C[C@@H]1CCCCO[C@H](CN(C)C(=O)Nc2ccc(F)cc2)[C@@H](C)CN([C@@H](C)CO)C(=O)c2cc(NC(=O)NC3CCCCC3)ccc2O1,inactive,inactive,inactive
C[C@@H]1CN([C@H](C)CO)C(=O)Cc2cc(NC(=O)Cc3cn(C)c4ccccc34)ccc2O[C@H]1CN(C)S(C)(=O)=O,inactive,inactive,inactive
Cc1noc(C)c1S(=O)(=O)Nc1ccc2c(c1)C(=O)N([C@H](C)CO)C[C@@H](C)[C@H](CN(C)C(=O)Nc1ccc(F)cc1)OCCCC[C@H](C)O2,inactive,inactive,inactive
N[C@@H](C(=O)O)c1cc(O)cc(O)c1,inactive,inactive,inactive
C[C@H](CO)N1C[C@H](C)[C@@H](CN(C)S(=O)(=O)c2ccccc2)Oc2ccc(NC(=O)CCN3CCOCC3)cc2C1=O,inactive,inactive,inactive
Cc1noc(C)c1NC(=O)N(C)C[C@@H]1OCCCC[C@H](C)Oc2ccc(NC(=O)Nc3ccccc3)cc2C(=O)N([C@@H](C)CO)C[C@H]1C,inactive,inactive,inactive
C[C@@H]1CN([C@H](C)CO)C(=O)Cc2cc(NS(=O)(=O)c3ccc(Cl)cc3)ccc2O[C@H]1CN(C)Cc1ccc(Oc2ccccc2)cc1,active,active,inactive
C[C@H]1CN([C@@H](C)CO)S(=O)(=O)c2ccc(-c3ccc(C#N)cc3)cc2O[C@@H]1CN(C)C(=O)CN(C)C,inactive,inactive,inactive
CCS(=O)(=O)Nc1ccc2c(c1)C(=O)N(C)[C@@H]1CC[C@H](CC(=O)NCc3ccc(OC)cc3)O[C@H]1CO2,inactive,inactive,inactive
CC(C)NC(=O)N(C)C[C@@H]1Oc2cc(C#Cc3ccccn3)ccc2S(=O)(=O)N([C@@H](C)CO)C[C@@H]1C,inactive,inactive,inactive
Cc1noc(C)c1NC(=O)Nc1ccc2c(c1)C(=O)N([C@@H](C)CO)C[C@@H](C)[C@@H](CN(C)C(=O)c1ccccc1)OCCCC[C@@H](C)O2,inactive,inactive,inactive
O=C(C[C@H]1CC[C@H]2[C@@H](COC[C@H](O)CN2CC2CCOCC2)O1)N1CCOCC1,inactive,inactive,inactive
COc1ccc(S(=O)(=O)N(C)C[C@H]2OCCCC[C@H](C)Oc3ccc(NC(=O)NC4CCCCC4)cc3C(=O)N([C@@H](C)CO)C[C@@H]2C)cc1,inactive,inactive,inactive
C[C@H](CO)N1C[C@H](C)[C@H](CN(C)Cc2ccc(C(F)(F)F)cc2)Oc2ccc(NS(=O)(=O)c3ccc(Cl)cc3)cc2CC1=O,active,active,inactive
Cc1cc(C)nc(NS(=O)(=O)c2ccc(NC(=O)c3cccn(OCc4ccc(F)cc4)c3=O)cc2)n1,inactive,inactive,inactive
O=C(CCCCCNC(=O)OC[C@H]1C(=O)O[C@@H](Cc2ccccc2)[C@H]2[C@H]3C(=CC(=O)[C@@H]3C3CC3)CN21)NO,inactive,inactive,inactive
NC[C@H]1CCN(c2ccc(Oc3ccccc3)cc2)C1,inactive,active,inactive
c1ccc(-c2cccs2)cc1,inactive,inactive,inactive
C[C@@H]1CN([C@@H](C)CO)C(=O)c2cc(NC(=O)Nc3cccc4ccccc34)ccc2O[C@@H]1CN(C)Cc1ccc(Cl)c(Cl)c1,inactive,inactive,inactive
Cc1cnc(N2C[C@H]3OCCN(S(=O)(=O)N(C)C)[C@H]3C2)nc1,inactive,inactive,inactive
COc1ccc(NC(=O)Nc2ccc3c(c2)C(=O)N([C@@H](C)CO)C[C@H](C)[C@@H](CN(C)C(=O)CCC(F)(F)F)OCCCC[C@H](C)O3)cc1,inactive,inactive,inactive
Cc1noc(C)c1S(=O)(=O)N(C)C[C@H]1OCCCC[C@@H](C)Oc2ccc(NC(=O)CCCCCC(=O)Nc3ccccc3N)cc2C(=O)N([C@@H](C)CO)C[C@@H]1C,inactive,inactive,inactive
C[C@@H]1CN([C@H](C)CO)C(=O)Cc2cc(NS(=O)(=O)c3ccc(Cl)cc3)ccc2O[C@H]1CN(C)Cc1ccc(Cl)c(Cl)c1,active,inactive,inactive
CC(=O)OC1CCC2(C)C(=CC=C3C2CCC2(C)C3CCC2C(C)C=CC(C)C(C)C)C1(C)C (stereo not given),inactive,inactive,inactive
C[C@@H]1CN([C@H](C)CO)C(=O)c2cc(NC(=O)Nc3ccc(F)cc3)ccc2O[C@@H](C)CCCCO[C@H]1CN(C)Cc1ccc(Cl)c(Cl)c1,active,active,inactive
